Data as given in the supplement of paper PMC11060735.
Where a name gives a salt, the structure may show the parent alone. Out of some 1,800 compounds screened, about 50 (3%) showed activity. The list shows a part of the results.

These compounds were tested on mouse p16Ink4a+/- lung fibroblasts (INKBRITE, bleomycin-injured) (assay: percentage of GFP+ (p16Ink4a+) fibroblasts among all cells in well; higher = less depletion of p16Ink4a+ cells, active = 20 or less). Conditions: 1 µM; 3 days.
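Note: fibroblasts sorted 14 days after bleomycin, GFP+ and GFP− mixed 1:1 in 384-well plates (GFP− as in-well control), imaged after Hoechst and NucView530 staining, reference wells lacked compound.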

SMILES	percentage of GFP+
COC1=C2C[C@@H](C)C[C@H](OC)[C@H](O)[C@@H](C)/C=C(\C)[C@H](OC(N)=O)[C@@H](OC)/C=C/C=C(\C)C(=O)/N=C(/C=C1O)C2=O [Geldanamycin]	active: 13.5%
Cc1cccc(Nc2cc(Cl)nc(SCC(=O)O)n2)c1C [Pirinixic Acid]	inactive: 41%
CCc1cncnc1N1CCN(Cc2nc3cc(C(F)(F)F)ccc3[nH]2)CC1	inactive: 45.3%
CC1=C(C(=O)O)N2C(=O)[C@@H](NC(=O)[C@H](N)c3ccccc3)[C@H]2SC1 [Cephalexin]	inactive: 42.4%
Nc1ccc(-c2ccc3ncc4ccc(=O)n(-c5cccc(C(F)(F)F)c5)c4c3c2)cn1 [Torin 2]	inactive: 45.7%
C=CC(=O)Nc1cccc(Oc2nc(Nc3ccc(N4CCN(C)CC4)cc3)ncc2Cl)c1	inactive: 48.2%
OC[C@@H](O)[C@@H](O)[C@H](O)[C@@H](O)CO [Sorbitol]	inactive: 35.5%
OC(CN1CCN(c2cccc(Cl)c2)CC1)C(c1ccccc1)c1ccccc1 (stereo unspecified)	inactive: 47.5%
CCOc1nc2cccc(C(=O)OCc3oc(=O)oc3C)c2n1Cc1ccc(-c2ccccc2-c2noc(O)n2)cc1 [Azilsartan medoxomil]	inactive: 42.3%
CC(C)Cc1ccc(C(C)C(=O)O)cc1 (racemic)	inactive: 48.8%
Cc1cn(-c2cc(NC(=O)c3ccc(C)c(Nc4nccc(-c5cccnc5)n4)c3)cc(C(F)(F)F)c2)cn1 [Nilotinib]	inactive: 36.1%
Cc1nn(-c2ccccc2)c(C)c1/C=N/N1CCN(Cc2ccccc2)CC1	inactive: 48.6%
O=c1c(-c2ccc(O)cc2)coc2cc(O)cc(O)c12 [Genistein]	inactive: 47.5%
O=C(Nc1ccc(OC(F)(F)F)cc1)c1sccc1NCc1ccnc2ccccc12	inactive: 30.4%
CC(C)(O)CC[C@@H](O)[C@](C)(O)[C@H]1CC[C@@]2(O)C3=CC(=O)[C@@H]4C[C@@H](O)[C@@H](O)C[C@]4(C)[C@H]3CC[C@]12C [20-Hydroxyecdysone]	inactive: 38.8%
CCN1CCN(C(=O)N[C@@H](C(=O)N[C@@H]2C(=O)N3C(C(=O)O)=C(CSc4nnnn4C)CS[C@H]23)c2ccc(O)cc2)C(=O)C1=O [Cefoperazone sodium salt]	inactive: 37.1%
O=C(O)C(O)Cc1ccc(O)c(O)c1 (stereo unspecified) [Sodium Danshensu]	inactive: 40.2%
CNc1ncnc2c1ncn2[C@@H]1O[C@H](CO)[C@@H](O)[C@H]1O [N6-methyladenosine]	inactive: 43.6%
COc1ccc2c(c1)c(CC(=O)OCC(=O)O)c(C)n2C(=O)c1ccc(Cl)cc1 [Acemetacin]	inactive: 34.3%
CS(=O)c1ccc(-c2nc(-c3ccc(F)cc3)c(-c3ccncc3)[nH]2)cc1 (stereo unspecified)	inactive: 41.1%
O=C(c1cncc(Br)c1)N1CCC(N2CCCC2)CC1	inactive: 38.2%
CN(C)CCc1c[nH]c2ccc(C[C@H]3COC(=O)N3)cc12 [Zolmitriptan]	inactive: 38.5%
CN(Cc1cc(Br)cc(Br)c1N)C1CCCCC1 [Bromhexine]	inactive: 36.3%

SMILES	percentage of GFP+
Cc1ccc([C@@H]2O[C@H](CO)[C@@H](O)[C@H](O)[C@H]2O)cc1Cc1ccc(-c2ccc(F)cc2)s1 [Canagliflozin]	inactive: 40.1%
CCCc1nc(C)c2c(O)nc(-c3cc(S(=O)(=O)N4CCN(CC)CC4)ccc3OCC)nn12 [Vardenafil]	inactive: 41.9%
NC(=O)N/N=C/c1ccc([N+](=O)[O-])o1 [Nitrofural]	inactive: 40.2%
O=C(/C=C/c1ccc(O)c(O)c1)c1ccc(O)cc1O [Butein]	inactive: 50.8%
CCNC(=O)Nc1ccc(-c2nc3c(c(N4CCOC[C@@H]4C)n2)CCN(C2COC2)C3)cc1	inactive: 34.5%
C[C@H](Oc1cc(-c2cnn(C3CCNCC3)c2)cnc1N)c1c(Cl)ccc(F)c1Cl [(S)-crizotinib]	inactive: 42.1%
Nc1ccn([C@@H]2O[C@H](CO)[C@@H](O)C2(F)F)c(=O)n1 [Gemcitabine]	active: 17.1%
O=C(O)/C=C/c1ccc(O)c(O)c1 [Caffeic Acid]	inactive: 41.9%
NC(=O)c1ncn([C@@H]2O[C@H](CO)[C@@H](O)[C@H]2O)c1N [Acadesine]	inactive: 36.7%
O=C(O)Cc1cccc(OCCCN(Cc2cccc(C(F)(F)F)c2Cl)CC(c2ccccc2)c2ccccc2)c1	inactive: 43.7%
N=C(N)N [Guanidine]	inactive: 47.6%
CC1(C)S[C@@H]2[C@H](NC(=O)C(C(=O)O)c3ccccc3)C(=O)N2[C@H]1C(=O)O (stereo partly specified) [Carbenicillin]	inactive: 45.8%
Cc1cc(C)c(CNC(=O)c2cc(-c3ccc(CN4CCOCC4)cc3)cc3c2cnn3C2CCCC2)c(O)n1	inactive: 49.7%
CN(C)C(=O)C(CCN1CCC(O)(c2ccc(Cl)cc2)CC1)(c1ccccc1)c1ccccc1 [Loperamide]	inactive: 43.3%
CN(C)CCC=C1c2ccccc2CCc2ccccc21 [Amitriptyline]	inactive: 57%
COC(=O)Nc1nc2cc(C(=O)c3ccc(F)cc3)ccc2[nH]1 [Flubendazole]	inactive: 34.5%
O[C@@H](CNC[C@H](O)[C@H]1CCc2cc(F)ccc2O1)[C@@H]1CCc2cc(F)ccc2O1 [Nebivolol]	inactive: 47.6%
CN1CCN(c2cccc(Nc3nc4c(-c5ccc(S(C)(=O)=O)cc5)cccn4n3)c2)CC1	inactive: 50%
NCCCCCNCC12CC3CC(CC(C3)C1)C2 [dihydrobroMide]	inactive: 44.7%
C[C@H](NC(=O)[C@@H](O)c1cc(F)cc(F)c1)C(=O)N[C@@H]1C(=O)N(C)c2ccccc2-c2ccccc21	inactive: 54%
CCCCNc1cc(C(=O)O)cc(S(N)(=O)=O)c1Oc1ccccc1 [Bumetanide]	inactive: 33%
O=C(NCc1ccc(Oc2ccccc2)cc1)c1nc(-c2cc(Br)c(O)c(Br)c2)no1	inactive: 49.1%
C[C@H]1COc2c(N3CCN(C)CC3)c(F)cc3c(=O)c(C(=O)O)cn1c23 [Levofloxacin]	inactive: 52.8%
